# The other results are listed elsewhere or left out. Values were computed here from the reads of four pooled replicates and scatter widely.
# Molecular target: T1, Pho4 (S. cerevisiae) (UniProt P07270)
# T1 sequence: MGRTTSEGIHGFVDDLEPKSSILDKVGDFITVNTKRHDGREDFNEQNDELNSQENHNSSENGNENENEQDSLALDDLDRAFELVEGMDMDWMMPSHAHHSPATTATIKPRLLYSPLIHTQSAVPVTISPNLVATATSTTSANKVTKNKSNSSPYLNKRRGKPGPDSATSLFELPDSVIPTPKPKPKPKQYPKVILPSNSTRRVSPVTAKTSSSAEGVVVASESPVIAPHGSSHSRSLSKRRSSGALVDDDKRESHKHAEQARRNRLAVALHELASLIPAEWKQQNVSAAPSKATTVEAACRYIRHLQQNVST
# Assay: relative binding free energy (BET-seq); higher = weaker binding
# Details: reference: library average
row,Sequence,relative binding free energy [kcal/mol]
1,TGATACACGTGTGATA,0.05
2,TGCGTCACGTGTTCGG,0.08
3,AGTAGCACGTGGTTAT,-0.06
4,AGGAGCACGTGCGGGC,-0.12
5,GCTGTCACGTGTGGTG,0.13
6,ATAGTCACGTGGGTGG,-0.04
7,CGATGCACGTGTGGGT,0.04
8,AAGAGCACGTGACGGG,-0.01
9,AGTGTCACGTGCTTAT,-0.09
10,CTCGGCACGTGGTTAG,-0.1
11,ATTATCACGTGGTCGA,0.08
12,TGATACACGTGTTGAT,-0.05
13,AGCTGCACGTGAATGT,0.23
14,TAGTACACGTGTGATA,0.02
15,GGAATCACGTGGATAG,0.2
16,AATTGCACGTGTATGG,-0.08
17,CGTGGCACGTGGGAGA,-0.1
18,ATATGCACGTGGGTGG,-0.11
19,CGCGTCACGTGTAGTG,0.19
20,GAAGGCACGTGGGGTA,-0.15
21,ATGGACACGTGAGGTG,0.12
22,GTTAACACGTGCGTGT,-0.04
23,TGTGGCACGTGATTAT,-0.08
24,CTAGGCACGTGGTAAG,-0.17
25,TATTACACGTGGATTT,0.03
26,CAAGGCACGTGAGGTT,0.17

row,Sequence,relative binding free energy [kcal/mol]
1,GCAGTCACGTGGTATA,0.06
2,GGTGGCACGTGGCGGT,-0.09
3,ATAGACACGTGTTGGT,-0.05
4,GGTCTCACGTGAGGGA,0.3
5,CGTGTCACGTGAGTTG,0.37
6,GGTTTCACGTGTTGCT,0.44
7,CTTTGCACGTGCGGGA,0.03
8,AACTGCACGTGGTCGG,0
9,GGTGACACGTGACGTT,0.22
10,ATATGCACGTGTGAGT,0.01
11,TGGGTCACGTGGCTTG,0.13
12,TGTTTCACGTGACGCT,0.19
13,TGAGTCACGTGGCGTG,0.06
14,TGGATCACGTGAATAG,0.26
15,TTGAGCACGTGCAAGG,-0.01
16,ACATGCACGTGGTGGA,-0.12
17,TGACTCACGTGTAGGG,-0.07
18,TGGCACACGTGAGAGG,0.27
19,ATCTGCACGTGGTGTA,-0.02
20,TCGGGCACGTGTTATG,-0.05
21,ATTTTCACGTGAAGTG,0.27
22,GGTGGCACGTGGTGGT,-0.01
23,ATAAACACGTGGTGTA,-0.03
24,TTGAACACGTGGGGAC,0.12
25,ACGTGCACGTGTGGGA,-0.03
26,ATGAACACGTGGATGA,0.05

row,Sequence,relative binding free energy [kcal/mol]
1,TGTCACACGTGGTTCG,0.15
2,GGGGACACGTGTACGG,0.04
3,TTAGTCACGTGATGGA,0.2
4,GGCGACACGTGTGGGA,0.14
5,AGCTGCACGTGCGGTG,-0.1
6,GGGGGCACGTGAGCGC,-0.07
7,TTTAGCACGTGCGTAG,-0.12
8,ATTCACACGTGTGGTG,0.11
9,CGGTTCACGTGTGGAC,0.37
10,TTTAACACGTGAGGCG,0.23
11,ATCGGCACGTGGGAGC,-0.1
12,GTTTTCACGTGGAGTA,0.29
13,TGTTACACGTGTGATA,0.27
14,AATGACACGTGGTGTG,-0.25
15,GATAGCACGTGTGAGA,0
16,GGTGGCACGTGTGCAT,-0.07
17,TGTAACACGTGGATTT,0.04
18,GCGCACACGTGGGGTG,-0.26
19,CGGTGCACGTGTGGGA,-0.12
20,CTTTTCACGTGGGCTG,0.2
21,AATTCCACGTGGGGGG,-0.03
22,TGGTGCACGTGCTTTT,-0.08
23,TTTGTCACGTGGCGTG,0.04
24,TTATTCACGTGGGAGC,0.16
25,TGCTACACGTGATTGT,0.09
26,TGGGGCACGTGCCTGG,-0.22

row,Sequence,relative binding free energy [kcal/mol]
1,GGTTGCACGTGAACGT,0.29
2,TTTTACACGTGATATG,0.21
3,ATAGTCACGTGGAGCG,0.07
4,TCTGGCACGTGGATTA,0.07
5,GGTGGCACGTGCCTGG,-0.29
6,GAGTGCACGTGGGGTA,-0.22
7,GACGTCACGTGTGGAT,0.24
8,TAATGCACGTGATAGA,0.15
9,AATTTCACGTGGAGCG,0.31
10,TATTACACGTGTTGAA,0.2
11,CATGGCACGTGAAGGA,0.24
12,TTAGTCACGTGGCTGG,0.09
13,GTAGGCACGTGGTGCT,-0.21
14,CGTTTCACGTGCAGTG,0.22
15,CTTCTCACGTGGGATG,0.11
16,GGGGTCACGTGATGCC,0.28
17,GTGGACACGTGTTCTG,-0.03
18,GATGGCACGTGTGATG,0.09
19,GGCAGCACGTGATTGT,0.07
20,AATGACACGTGGAGGG,-0.07
21,TTGGACACGTGTGAAG,0.06
22,AGTAACACGTGGTGGT,-0.19
23,TGATTCACGTGAAGTG,0.36
24,TGGCCCACGTGGGAGG,-0.37
25,GTTATCACGTGATGAA,0.28
26,TAACGCACGTGGTCGT,-0.12

row,Sequence,relative binding free energy [kcal/mol]
1,TAGTTCACGTGTAGAG,0.22
2,AGTTACACGTGTTAAA,0.16
3,GAAGGCACGTGTGGAA,-0.03
4,TGTGGCACGTGGTGGT,-0.11
5,TGGGTCACGTGCATCG,0.06
6,GGGTTCACGTGGGTGC,0.19
7,CTTTACACGTGGTTGG,0
8,TTACGCACGTGTGTGT,0.04
9,TAGGGCACGTGGTAGC,-0.19
10,ACTGTCACGTGGGTTT,0
11,AATAACACGTGTGATT,0.06
12,TTGTGCACGTGGATAG,0.02
13,AGGTGCACGTGATCGG,-0.04
14,TGTCTCACGTGTTCGG,0.1
15,TTATTCACGTGTTGTC,0.28
16,GGTTACACGTGCGGCG,0.01
17,ATTTTCACGTGTCGCT,0.17
18,AGTTGCACGTGTTGCA,-0.02
19,AGGCTCACGTGTGTGG,0.28
20,CTAGGCACGTGGGGCA,-0.35
21,GTTGCCACGTGGTTGT,-0.17
22,TGTGACACGTGACTGG,0.09
23,AGTTACACGTGTGAGT,0.28
24,TTCAACACGTGTGGTT,0.15
25,ATTGTCACGTGGCAAA,0.02
26,TTTATCACGTGGAGGC,0.26

row,Sequence,relative binding free energy [kcal/mol]
1,TTCCGCACGTGGTGGT,-0.12
2,TTTGACACGTGGATAT,0.01
3,AGTGGCACGTGAGGAC,0.08
4,TGTTGCACGTGTGTAC,-0.03
5,TTCACCACGTGTGGTT,0.09
6,GTCAGCACGTGTATTT,0.03
7,CTTGTCACGTGGGGCG,-0.02
8,CTTGGCACGTGGTGTT,-0.2
9,TTTCTCACGTGCGGGG,0.29
10,TATGGCACGTGACAAT,0.13
11,TTTGTCACGTGGCTTT,0.04
12,TTCCGCACGTGATGGT,0.09
13,GGGACCACGTGGTGGC,-0.1
14,TCGGTCACGTGAATGG,0.26
15,GTTAGCACGTGGTCTT,-0.11
16,TTATTCACGTGACGTA,0.12
17,TGTGGCACGTGCTAAT,-0.08
18,TAGTTCACGTGAATGG,0.43
19,TGATTCACGTGTTATG,0.25
20,CGGAACACGTGAGGTT,0.38
21,GATTTCACGTGTTAGA,0.31
22,TTTGTCACGTGTAAGA,0.12
23,TGGTACACGTGTCTTA,0.12
24,GTAGTCACGTGAATGA,0.38
25,TTAGTCACGTGCAGGG,0.01
26,TTCGGCACGTGTGAGT,-0.04

row,Sequence,relative binding free energy [kcal/mol]
1,TGCCTCACGTGTGTAG,0.26
2,AGATGCACGTGGCGTT,-0.17
3,GTCTACACGTGCGTGT,0.25
4,AATGACACGTGGTAGT,-0.14
5,TGGGCCACGTGAGGTT,0.26
6,AGCAGCACGTGCAGGG,-0.1
7,TTCGTCACGTGTCGTG,-0.09
8,TTTTACACGTGTGTTA,0.09
9,CTAAGCACGTGGTGTG,-0.28
10,GGGTTCACGTGAAAAT,0.36
11,TGGGGCACGTGGCGCT,-0.25
12,GTGTGCACGTGCGAGG,-0.14
13,TTCTGCACGTGGTGGC,-0.02
14,GAGACCACGTGGGGTG,-0.1
15,TAATGCACGTGTCAGG,0.02
16,TTAAGCACGTGGCGGG,-0.23
17,GTGACCACGTGGGGGG,-0.18
18,CCGATCACGTGGTGGT,0.23
19,ATCATCACGTGTATTT,0.35
20,GGTCGCACGTGCGTGG,-0.09
21,ATGGGCACGTGGTTCA,-0.12
22,AGGGTCACGTGGCAAT,-0.04
23,GTAGTCACGTGGATGG,0.19
24,GGAGTCACGTGCTAGG,0.09
25,GGAGTCACGTGTGTCA,0.17
26,CGGGTCACGTGCAGTT,0.06

row,Sequence,relative binding free energy [kcal/mol]
1,TTAAACACGTGCAGGG,0.12
2,TCAGCCACGTGTTGTG,0
3,GCGATCACGTGAAGGG,0.31
4,TAGTTCACGTGATGGC,0.5
5,TGGATCACGTGGTTAG,0.13
6,CACGTCACGTGTGGTT,0.03
7,CGATGCACGTGGGTGA,-0.24
8,TGGGTCACGTGTCGGG,0.22
9,AAAATCACGTGCGGGG,0.26
10,CGAGGCACGTGATTTG,0.02
11,GGCTGCACGTGTTCGT,0.01
12,CGTGGCACGTGTTGTA,-0.13
13,GGCGCCACGTGGGAGT,-0.2
14,TGATACACGTGCTGGG,0.1
15,GTATACACGTGGGGGG,-0.06
16,GTGTACACGTGATGGG,0.28
17,AGGTTCACGTGCATGT,0.22
18,TCGTTCACGTGTTGTT,0.27
19,GGGGTCACGTGATTTG,0.28
20,TTGGACACGTGGTGTT,0.01
21,GTGTACACGTGTAGTT,0.1
22,GTTTTCACGTGCTTTT,0.31
23,TTCGTCACGTGTGAGC,0.24
24,AGTTGCACGTGGGCAA,-0.2
25,TTGAGCACGTGTATTG,-0.05
26,ATTAGCACGTGGCTTG,-0.11

row,Sequence,relative binding free energy [kcal/mol]
1,ATGTCCACGTGTTTGA,0.02
2,TGCTGCACGTGTTATT,-0.03
3,TTTTGCACGTGCGTAT,-0.05
4,TTTTTCACGTGATACG,0.26
5,AATTTCACGTGCTTGG,0.16
6,GCGGGCACGTGCGAGT,-0.06
7,GTGGTCACGTGAGCTG,0.31
8,CTGTGCACGTGTATAT,-0.05
9,ATATGCACGTGAAGTG,0.14
10,TGGGGCACGTGGAGAC,-0.06
11,TAAATCACGTGCGGTG,0.33
12,TCTGACACGTGTTGAT,0.11
13,GGTGTCACGTGTATCA,0.11
14,GATAGCACGTGTTTTT,0.01
15,AGGTGCACGTGTCAAT,0.05
16,GCTTACACGTGTTTGT,0.13
17,AGTTTCACGTGTTCCG,0.36
18,TAGATCACGTGGGGGA,0.12
19,ATTGTCACGTGAGTCA,0.33
20,GTAGTCACGTGGTTCG,0.09
21,TAAATCACGTGACGTT,0.33
22,GTCTACACGTGGGGTA,0.01

# From the BET-seq Pho4 binding data (Le et al. 2018)
